This is one part of the list.
test system: HSkMC (human skeletal muscle cells); assay: cytotoxicity call (relative viability < 0.9); details: 10 µM

Compound	cytotoxicity call
CCN(CC)CCOC(=O)C(c1ccccc1)c1ccccc1.Cl	inactive
CN(C)CCCNC(=O)C[C@@H]1CC[C@@H]2[C@H](COC[C@H](O)CN2S(=O)(=O)c2ccc(F)cc2)O1	inactive
O=C(c1cccs1)N1c2ccccc2Sc2ccccc21	inactive
C[C@H]1CCCCO[C@@H](CN(C)Cc2ccc3c(c2)OCO3)[C@@H](C)CN([C@@H](C)CO)C(=O)c2cc(NC(=O)Cc3ccccc3)ccc2O1	inactive
COc1ccc(NC(=O)N(C)C[C@H]2Oc3ccc(NC(=O)CCCN(C)C)cc3C(=O)N([C@@H](C)CO)C[C@H]2C)cc1	inactive
COc1ccc(NC(=O)Nc2ccc3c(c2)C(=O)N([C@@H](C)CO)C[C@H](C)[C@@H](CN(C)Cc2ccc(Oc4ccccc4)cc2)O3)cc1	inactive
C[C@@H]1CN([C@H](C)CO)C(=O)c2cccc(NC(=O)Nc3ccccc3)c2O[C@H]1CN(C)C(=O)Nc1cccc2ccccc12	inactive
C[C@]12C[C@@H](O)[C@@H]3C[C@@]1(O[C@@H]1O[C@H](CO)[C@@H](O)[C@H](O)[C@H]1O)[C@@]3(COC(=O)c1ccccc1)C(=O)O2	inactive
COc1ccc(S(=O)(=O)Nc2ccc3c(c2)C(=O)N([C@H](C)CO)C[C@H](C)[C@@H](CN(C)S(=O)(=O)c2ccccc2)O3)cc1	inactive
C[C@@H]1CN([C@H](C)CO)C(=O)c2cc(NS(=O)(=O)c3ccc(Cl)cc3)ccc2O[C@@H](C)CCCCO[C@@H]1CN(C)C(=O)c1ccccc1	inactive
CO[C@@H]1CN(C)C(=O)c2ccc(NC(=O)C3CCOCC3)cc2OC[C@@H](C)N(Cc2cccnc2)C[C@H]1C	inactive
CC(C)NC(=O)Nc1ccc2c(c1)C(=O)N(C)[C@@H]1CC[C@H](CC(=O)NCc3ccc(F)cc3)O[C@@H]1CO2	inactive
C[C@H](CO)N1C[C@H](C)[C@@H](CN(C)Cc2ccc3c(c2)OCO3)Oc2c(NS(=O)(=O)c3cn(C)cn3)cccc2C1=O	inactive
COCC#Cc1cnc2c(c1)C(=O)N([C@H](C)CO)C[C@H](C)[C@H](CN(C)C(=O)Nc1ccc(OC)cc1)O2	inactive
O=C(NCc1cccc(F)c1)[C@H]1[C@H](CO)[C@H]2Cn3c(cccc3=O)[C@@H]1N2C(=O)c1cnccn1	inactive
C[C@H](CO)N1C[C@H](C)[C@H](CN(C)C(=O)Nc2ccccc2)Oc2c(NC(=O)CCCCCC(=O)Nc3ccccc3N)cccc2C1=O	inactive
Clc1ccc([C@@H](c2ccccc2Cl)C(Cl)Cl)cc1	inactive
O=c1c(O[C@@H]2O[C@H](CO)[C@@H](O)[C@H](O)[C@H]2O)c(-c2ccc(O)cc2)oc2cc(O)cc(O)c12	inactive
C[C@H]1CN([C@@H](C)CO)C(=O)c2cccc(NC(=O)c3nc4ccccc4s3)c2O[C@@H]1CN(C)C(=O)Nc1ccc(F)cc1	inactive
C[C@H](CO)N1C[C@H](C)[C@H](CN(C)C(=O)C2CCOCC2)Oc2ncc(C#CC3(O)CCCC3)cc2C1=O	inactive
Cc1noc(C)c1NC(=O)N(C)C[C@H]1OCCCC[C@H](C)Oc2ccc(NS(=O)(=O)c3ccc(Cl)cc3)cc2C(=O)N([C@@H](C)CO)C[C@@H]1C	inactive
Cc1ccc(S(=O)(=O)N(C)C[C@H]2OCCCC[C@@H](C)Oc3ccc(NS(C)(=O)=O)cc3C(=O)N([C@H](C)CO)C[C@H]2C)cc1	inactive
C[C@H]1CN([C@@H](C)CO)C(=O)c2cc(NC(=O)Nc3ccc(C(F)(F)F)cc3)ccc2O[C@@H]1CN(C)S(=O)(=O)c1ccc(Cl)cc1	inactive
COc1ccc(S(=O)(=O)Nc2ccc3c(c2)C(=O)N([C@@H](C)CO)C[C@H](C)[C@H](CN(C)C(=O)c2ccccc2)OCCCC[C@H](C)O3)cc1	inactive
Cc1noc(C)c1NC(=O)N(C)C[C@@H]1OCCCC[C@@H](C)Oc2ccc(NS(=O)(=O)c3ccccc3)cc2C(=O)N([C@@H](C)CO)C[C@H]1C	inactive
C[C@@H]1CN([C@@H](C)CO)S(=O)(=O)c2ccc(C#CC3(O)CCCC3)cc2O[C@H]1CN(C)C(=O)c1ccccc1	inactive
O=C(C[C@@H]1CC[C@H]2[C@@H](COC[C@H](O)CN2S(=O)(=O)c2cccc(Cl)c2)O1)NCc1ccncn1	inactive
CC(C(=O)O)c1ccc2c(c1)[nH]c1ccc(Cl)cc12 (centres undefined)	inactive
COc1ccc(S(=O)(=O)N(C)C[C@H]2Oc3ccc(NS(=O)(=O)c4ccc(C)cc4)cc3CC(=O)N([C@H](C)CO)C[C@@H]2C)cc1	inactive
